The test system of experiment [1] is HSkMC (human skeletal muscle cells). Briefly: cytotoxicity call (relative viability < 0.9). Conditions: 10 µM.
Experiment [2] has as its system HepG2. As to the kind of experiment: cytotoxicity call (relative viability < 0.9). The following applies: 10 µM.
Experiment [3] has as its system S. aureus RN4220. As to the kind of experiment: growth inhibition call (relative growth <= 0.2). The following applies: 50 µM.

Some of the results follow.

In the case of `NCc1ccc(S(N)(=O)=O)cc1`, the cytotoxicity call in experiment [1] and in experiment [2] was “inactive” each time. Also, the growth inhibition call in experiment [3] was “inactive”.

With `CC(C)NC(=O)N(C)C[C@H]1Oc2ccc(NC(=O)C3CCCCC3)cc2CC(=O)N([C@@H](C)CO)C[C@H]1C`, the cytotoxicity call in experiment [1] and in experiment [2] was “inactive” throughout. Moreover, the growth inhibition call in experiment [3] is “inactive”.

On to `O=C(O)CNC(=O)CNC(=O)Cn1nc(-c2ccccc2)ccc1=O`, for which the cytotoxicity call in experiment [1] and in experiment [2] was “inactive” in each case. Besides, in experiment [3], the growth inhibition call was “inactive”.

As to `CCCNC(=O)N(C)C[C@@H]1Oc2cc(C#Cc3ccccn3)ccc2S(=O)(=O)N([C@H](C)CO)C[C@@H]1C`, the cytotoxicity call in experiment [1] and in experiment [2] was “inactive” throughout. In addition, in experiment [3], the growth inhibition call is “inactive”.

Consider `COc1ccc(CN(C)C[C@H]2Oc3ccc(NC(=O)Nc4ccc(C(F)(F)F)cc4)cc3CC(=O)N([C@@H](C)CO)C[C@@H]2C)cc1`, for which the cytotoxicity call in experiment [1] is “inactive”. Moreover, the cytotoxicity call in experiment [2] is “active”. In experiment [3], the growth inhibition call is “inactive”.

As for `O=C(N1CCCC1)N1CCNCC1`, the cytotoxicity call in experiment [1] and in experiment [2] was “inactive” each time. The growth inhibition call in experiment [3] was “inactive”.

With `COCC(=O)N1C[C@@H](C)[C@@H](OC)CN(C)C(=O)c2cc(NC(=O)Nc3ccccc3)ccc2OC[C@@H]1C`, the cytotoxicity call in experiment [1] and in experiment [2] was “inactive” throughout. Besides, the growth inhibition call in experiment [3] was “inactive”.

In the case of `Cc1cc(O)cc(O)c1C(=O)O`, the cytotoxicity call in experiment [1] and in experiment [2] was “inactive” each time. Also, the growth inhibition call in experiment [3] was “inactive”.

Turning to `COc1cc(C=CC(=O)N2CCCCCCC2)cc(OC)c1OC`, the cytotoxicity call in experiment [1] and in experiment [2] was “inactive” each time. For the same compound, the growth inhibition call in experiment [3] is “inactive”.

Take `CNC[C@@H]1Oc2cc(C#CC(C)(C)O)ccc2S(=O)(=O)N([C@@H](C)CO)C[C@@H]1C`: the cytotoxicity call in experiment [1] and in experiment [2] was “inactive” throughout. The growth inhibition call in experiment [3] is “inactive”.

In the case of `COc1ccc(S(=O)(=O)N(C)C[C@@H]2Oc3ccc(NC(=O)Cc4ccccc4)cc3C(=O)N([C@H](C)CO)C[C@H]2C)cc1`, the cytotoxicity call in experiment [1] and in experiment [2] was “inactive” in each case. Moreover, in experiment [3], the growth inhibition call is “inactive”.

Take `C[C@H]1CN([C@@H](C)CO)C(=O)Cc2cc(NC(=O)Nc3cc(Cl)cc(Cl)c3)ccc2O[C@H]1CN(C)S(=O)(=O)c1ccc(Oc2ccccc2)cc1`: in experiment [1], the cytotoxicity call was “inactive”. The cytotoxicity call in experiment [2] is “active”. The growth inhibition call in experiment [3] was “inactive”.

With `C[C@@H]1CCCCO[C@@H](CN(C)S(C)(=O)=O)[C@H](C)CN([C@H](C)CO)C(=O)c2cc(NC(=O)Nc3ccc(C(F)(F)F)cc3)ccc2O1`, the cytotoxicity call in experiment [1] and in experiment [2] was “inactive” in each case. Also, the growth inhibition call in experiment [3] was “inactive”.

The values above are taken from the antibiotic and cytotoxicity screens of Wong et al. (2023).
